# Reference: PubChem BioAssay AID686978 (National Center for Advancing Translational Sciences (NCATS), 2013)
# Out of some 420,000 compounds screened, about 64,000 (15%) were called active. This list was built around the results that the source calls inconclusive (neither active nor inactive); the mix of calls is not that of the screen. Calls follow the shape of the dose curve; as a rule, active = well fitted inhibition curve with a large enough effect; inconclusive = small, poorly fitted or top-dose-only effect; inactive = flat fitted curve, though single readings scatter. No potency is given beside an inconclusive call; the fits are too rough.
# Assay: qHTS for Inhibitors of human tyrosyl-DNA phosphodiesterase 1 (TDP1): qHTS in cells in absence of CPT; also: nearly all actives have a fitted effect of over 55% in size
# Details: DT40 Tdp1-/- hTDP1 cells, no CPT, ATP luminescence, 48 h; activity change, negative = growth inhibition: at 46.2 µM (top of the series)
# How it was run: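 Stably hTDP1-transfected Tdp1-null chicken DT40 cells were treated with library compounds minus camptothecin and grown for at least 48 hr at 37 °C, after which cellular ATP was quantified by luminescence.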
# % is scaled to controls: 0 for no effect and ±100 for the full control effect; potency is read from the fitted curve at half-maximal effect; tags tell the direction and shape of the fitted curve.
SMILES,Potency,"activity change, negative = growth inhibition"
CCCn1c(SCC(=O)c2cc(OC)ccc2OC)nnc1C(C)C,"inconclusive [inhibitor, single point]",–
CC1CCCN(S(=O)(=O)c2ccc(NC(=O)CN3C(=O)NC(C)(c4ccccc4)C3=O)cc2)C1 (stereo unspecified),"inconclusive [inhibitor, partial curve]",–
CCOC(=O)Cc1nnc2c(Nc3ccc(Cl)cc3)nc3nonc3n12,"inconclusive [inhibitor, single point]",–
COc1cc2ccccc2cc1C(=O)Nc1ccc2oc(-c3ccc(F)cc3Cl)nc2c1,inactive,–
CCc1ccc(CNC(=O)c2c(C)oc3ncnc(N4CCOCC4)c23)cc1,"inconclusive [inhibitor, single point]",–
COc1cccc(C(=O)Nc2c(C(=O)N3CCN(c4ccc(F)cc4)CC3)oc3ccccc23)c1,"inconclusive [inhibitor, partial curve, poor fit]",–
COC(=O)c1cc(COc2ccc3oc(C)c(C(=O)OC)c3c2)c(C)o1,"inconclusive [inhibitor, partial curve]",–
COCc1ccc(C(=O)Nc2cccc(S(=O)(=O)N(C)c3ccccc3)c2)cc1,active: 18.4 µM,–
O=C(NCc1ccco1)C1(c2ccc(Cl)cc2)CCCC1,"inconclusive [inhibitor, single point]",–
CCc1nc(SCC(=O)N2CCc3ccccc32)c2oc3ccccc3c2n1,inactive,–
CC(C)c1ccc(Nc2cc(C(=O)NC3CCCCC3)c3ccccc3n2)cc1,active: 20.6 µM,–
CCc1cccc(-n2c(=O)c3cccnc3n2CC(=O)Nc2ccc(F)c(C)c2)c1,"inconclusive [inhibitor, single point]",–
COc1cccc(NC(=O)c2cc(-c3ccc(C)o3)nc3ccccc23)c1,"inconclusive [inhibitor, single point]",–
CCCCC(CC)C(=O)Nc1ccccc1C(=O)NC(C)C (stereo unspecified),"inconclusive [inhibitor, partial curve]",–
CC(=O)Nc1ccc(Oc2nc(-c3ccccn3)nc3ccccc23)cc1,"inconclusive [inhibitor, single point]",–
Cc1nc2cnc(N3CCOCC3)nc2n(C[C@H]2CCCO2)c1=O,inactive,–
COc1ccc2c(c1OC)C(=O)N1c3ccccc3C(=O)OC21 (stereo unspecified),–,inactive: 3.21% [at 9.04 µM]
COc1cccc(NC(=O)CN(C)C(=O)CNC(=O)c2sc3ccccc3c2Cl)c1,"inconclusive [inhibitor, single point]",–
CCC(NC(=O)OC(C)(C)C)C(=O)Oc1ccc2c3c(c(=O)oc2c1)CCC3 (stereo unspecified),"inconclusive [inhibitor, single point]",–
Cc1ccc2c(c1)C1CN(C)CCC1N2Sc1ccccc1[N+](=O)[O-] (stereo unspecified),active: 16.4 µM,–
CCOc1ccccc1-n1nnc(-c2nsc(NC(=O)c3ccc(C)cc3)n2)c1C,"inconclusive [inhibitor, single point]",–
CCc1ccccc1OCC(=O)Nc1ccc(S(=O)(=O)Nc2nc(C)cc(C)n2)cc1,"inconclusive [inhibitor, single point]",–
COc1ccc2nc3n(c(=O)c2c1)-c1cc2ccccc2cc1C(=O)NC3Cc1ccc(O)cc1 (stereo unspecified),active: 18.4 µM,–
C=CCc1c(C)nc(C)nc1N/N=C/c1ccccc1,"inconclusive [inhibitor, single point]",–

SMILES,Potency,"activity change, negative = growth inhibition"
COc1ccc(NC(=O)CN(c2cc(C)cc(C)c2)S(=O)(=O)c2c(C)noc2C)cc1OC,"inconclusive [inhibitor, single point]",–
COc1ccccc1CNC(=O)N1CCN(c2ccccc2)CC1,"inconclusive [inhibitor, single point]",–
O=C(NCCn1ccc2ccccc21)c1ccc(Cl)cc1,"inconclusive [inhibitor, single point]",–
S=C(NCCc1ccccc1)N/N=C/c1cccs1,"inconclusive [inhibitor, single point]",–
O=C(O)CCCCCNCc1ccncc1,"inconclusive [inhibitor, full curve, poor fit]",–
COCC(=O)Nc1cc(Sc2ccccc2)ccc1N=C(NC(=O)OC)NC(=O)OC,"inconclusive [inhibitor, single point]",–
COc1ccccc1NC(=O)CSc1nc(-c2ccc(C(C)(C)C)cc2)c(C#N)c(=O)[nH]1,inactive,–
COc1cccc(Cn2c(=O)cnc3cnc(N(C)C)nc32)c1,inactive,–
Cc1cccc(N2CCN(CCNC(=O)Nc3ccc(Cl)cc3)CC2)c1C,active: 13 µM,–
Cc1cccc(OCCC(=O)NO)c1,active: 10 µM,–
Cn1c(=O)c2c(=O)cc(NNC(=O)CC#N)[nH]c2n(C)c1=O,"inconclusive [inhibitor, single point]",–
Oc1ccc(CNc2ccccc2F)c2cccnc12,active: 2.06 µM,–
COc1ccccc1CCNc1ncnc2sc(C(=O)N3CCCN(C=O)CC3)c(C)c12,"inconclusive [inhibitor, single point]",–
O=[N+]([O-])c1ccc(N2CCCCC2)s1,inactive,–
Cc1ccc(C(=O)OCC(=O)Nc2ccc(C)c(S(=O)(=O)N3CCCCC3)c2)o1,"inconclusive [inhibitor, single point]",–
CCOC(=O)C1=C(c2ccccc2)NC(N)=NC1c1ccc(OCc2ccc(Cl)cc2)c(OC)c1 (stereo unspecified),"inconclusive [inhibitor, single point]",–
COc1ccc(CCN2CCCC(CN(C)Cc3cccc(OC)c3)C2)cc1 (stereo unspecified),"inconclusive [inhibitor, single point]",–
CCOC(=O)C1CCCN(C(=O)c2ccc(OC)cc2)CC1 (stereo unspecified),inactive,–
Cc1ccc(S(=O)(=O)NCCC(=O)NCc2ccc3c(c2)OCO3)cc1C,inactive,–
COc1ccc(N2CCN(c3oc(COc4ccccc4Cl)nc3C#N)CC2)cc1,"inconclusive [inhibitor, partial curve]",–
O=[N+]([O-])c1ccc(OC/C=C2\Oc3ccc([N+](=O)[O-])cc3C2N2CCOCC2)cc1 (stereo unspecified),active: 23.1 µM,–
CC(=O)Oc1cc2cccc(OC(C)=O)c(=O)c2c(OC(C)=O)c1OC(C)=O,active: 18.4 µM,–
COc1ccc(/C=C/C(=O)Nc2nc3n(n2)C(c2ccc(F)cc2)C=C(c2ccccc2)N3)cc1 (stereo unspecified),active: 3.66 µM,–
CCC(=O)Nc1nc2ccccc2n1CCN(C)C,inactive,–

SMILES,Potency,"activity change, negative = growth inhibition"
COc1ccc(NC(=O)Cn2c(=O)n(Cc3nc(-c4ccccc4)no3)c(=O)c3ccccc32)cc1Cl,"inconclusive [inhibitor, partial curve]",–
O=C(CSc1ccccn1)N/N=C/c1cc([N+](=O)[O-])ccc1O,"inconclusive [inhibitor, single point]",–
COC(=O)c1c(NC(=O)CCNCc2ccco2)sc2c1CCC2,"inconclusive [inhibitor, single point]",–
COc1ccc(-n2c(=S)[nH]c3cc(C(=O)Nc4ccc(C)c(F)c4)ccc3c2=O)c(OC)c1,"inconclusive [inhibitor, single point]",–
CCOC(=O)N1CCC(NC(=O)c2ccc3c(c2)N(CC)CCS3)CC1,"inconclusive [inhibitor, single point]",–
COc1ccc(N2CCN(C(=O)c3ccc(NS(=O)(=O)c4cccs4)cc3)CC2)cc1,active: 13 µM,–
Cc1ccc(S(=O)(=O)N2CCN(C(=O)C(O)c3ccccc3)CC2)cc1 (stereo unspecified),inactive,–
O=C(NC1CCCC1)c1sc(=S)n2c1[nH]c(=O)c1ccccc12,"inconclusive [inhibitor, single point]",–
CCOc1ccc2nc(NCCNC(=O)C3CC3)c(C)cc2c1,inactive,–
CCN(Cc1ccc(N(C)C)cc1)C(C)C(=O)Nc1ccc(S(=O)(=O)N2CCCC2)cc1 (stereo unspecified),inactive,–
CCOC(=O)Cc1csc(N/C(=N/S(=O)(=O)c2ccc(Cl)cc2)c2ccccc2)n1,active: 29.1 µM,–
Cn1cnc(S(=O)(=O)N2CCCC(c3cc(C(=O)Nc4ccc(F)c(Cl)c4)no3)C2)c1 (stereo unspecified),"inconclusive [inhibitor, single point]",–
COc1ccc(NC(=O)C2CCCN(S(=O)(=O)c3ccc(Br)s3)C2)cc1 (stereo unspecified),"inconclusive [inhibitor, single point]",–
Cc1ccc(C(CC(=O)O)Nc2nc(N3CCCCC3)nc(N3CCCCC3)n2)cc1 (stereo unspecified),inactive,–
CCOC(=O)c1cnc2ccc(Br)cc2c1NCCCN1CCOCC1,"inconclusive [inhibitor, single point]",–
COc1ccc(NC(=O)c2cccc(NC3=NC4CS(=O)(=O)CC4S3)c2)cc1Cl (stereo unspecified),inactive,–
CC(=O)c1c[nH]c(C(=O)NC2CCCCCC2)c1,inactive,–
COc1ccc(NC(=O)c2ccc(-n3c(C)ccc3C)cc2)c(OC)c1,"inconclusive [inhibitor, single point]",–
CC(=O)N1CCc2cc(S(=O)(=O)NC(C(=O)Nc3ccc(C)cc3C)C(C)C)ccc21 (stereo unspecified),"inconclusive [inhibitor, single point]",–
NC1(C(=O)O)CCc2cc(C(=O)O)ccc21 (stereo unspecified),"inconclusive [inhibitor, partial curve]",–
CCCCCCCCCCC(CO)CCCCCCCC (stereo unspecified),inactive,–
COc1cccc2cc(C(=O)N3CCN(c4ccccc4F)CC3)c(=O)oc12,inactive,–
O=C(c1ccc2oc(Cc3ccc(Cl)cc3)nc2c1)N1CCCCC1CCO (stereo unspecified),"inconclusive [inhibitor, single point]",–
